The source of these data is PubChem BioAssay AID228 (DTP/NCI, 2004).

Results filed as inconclusive are left out. A number of entries come with more than one value. They are shown here; other results are not. There may be further records. The records of an entry are repeats across runs, samples, wells, individuals or studies. Starred links: 1 amine or outer side, 2 acyl side, 3 side chain; linkers in the order of their positions; H or OH if unused. Positions of bridges follow the written chain, without caps; N, C: chain ends. Non-standard residues stand in square brackets, D forms with d. Residues, ends and D or L forms follow the SMILES beside them. Chains are numbered I, II in the order given. Actinocin(9to1) = Cc1c2oc3c(C)ccc(C(=O)[*:1])c3nc-2c(C(=O)[*:2])c(N)c1=O; aThr = C[C@H](O)[C@H](N)C(=O)O; NMeV = CN[C@H](C(=O)O)C(C)C; Sar = CNCC(=O)O

The assay has as its system BDF1 mice, Friend leukemia sc, tumor weight T/C. The assay can be described thus: NCI In Vivo Anticancer Drug Screen. Data for tumor model Friend Virus Leukemia (Solid) (subcutaneous) in B6D2F1 (BDF1) mice. The conditions noted are these: endpoint: mean tumor weight, higher = larger tumour. On the procedure: The antitumor activity of compounds was measured in mice bearing transplantable tumors. Survival or tumor size were measured and the results are expressed as the measurement made in the treated group (T) divided by the measurement made in the vehicle treated control group (C). The tumor model used in this assay is Friend Virus Leukemia (Solid) (subcutaneous) in B6D2F1 (BDF1) mice

Where [1] appears, read: dose: 50.0 mg/kg/injection, schedule: Q01DX011 (ip), vehicle: carboxymethylcellulose (CMC).
Where [2] appears, read: dose: 125.0 mg/kg/injection, schedule: Q01DX011 (ip), vehicle: carboxymethylcellulose (CMC).
The mark [3] stands for this setting: dose: 1.0 mg/kg/injection, schedule: Q01DX011 (ip), vehicle: carboxymethylcellulose (CMC).

Consider `CNS(=O)(=O)c1ncnc2nc[nH]c12`, for which the T/C (dose: 47.0 mg/kg/injection, schedule: Q01DX011 (ip), vehicle: carboxymethylcellulose (CMC)) was 40 % of control and 116 % of control.

For `Cc1c2oc3c(C)ccc(C(=O)N[C@@H]4C(=O)N[C@H](C(C)C)C(=O)N5CCC[C@H]5C(=O)N(C)CC(=O)N(C)[C@@H](C(C)C)C(=O)O[C@H]4C)c3nc-2c(C(=O)N[C@@H]2C(=O)N[C@H](C(C)C)C(=O)N3CCC[C@H]3C(=O)N(C)CC(=O)N(C)[C@@H](C(C)C)C(=O)O[C@H]2C)c(N)c1=O` (I: [aThr][dV]P[Sar][NMeV] / II: [aThr][dV]P[Sar][NMeV]; ester I:1-I:C, II:1-II:C; linker I:N-II:N via Actinocin(9to1)), the T/C is 59 % of control, 74 % of control, 120 % of control (dose: 25.0 micrograms/kg/injection, schedule: Q01DX011 (ip), vehicle: carboxymethylcellulose (CMC)); 14 % of control and 69 % of control (dose: 50.0 micrograms/kg/injection, schedule: Q01DX011 (ip), vehicle: carboxymethylcellulose (CMC)).

In the case of `CC(=O)[C@H]1CC[C@H]2[C@@H]3CCC4=CC(=O)[C@H](C)C[C@]4(C)[C@@]3(F)[C@@H](O)C[C@]12C`, the T/C (dose: 37.5 mg/kg/injection, schedule: Q01DX011 (sc), vehicle: steriod suspending solution) is 23 % of control, 47 % of control, 57 % of control.

Consider `CCOC(N)=O`, for which, where the note is “dose: 200.0 mg/kg/injection, schedule: Q01DX011 (ip), vehicle: carboxymethylcellulose (CMC)”, the T/C was 72 % of control and 107 % of control. Consider `O=c1[nH]c(=O)n(C2CC(O)C(CO)O2)cc1F` (centres undefined), for which the T/C by setting is: under setting [1], 18 % of control and 61 % of control; (dose: 63.0 mg/kg/injection, schedule: Q01DX011 (ip), vehicle: saline) 55 % of control and 116 % of control. Regarding `O=P1(N(CCCl)CCCl)NCCCO1` (centres undefined), under “dose: 25.0 mg/kg/injection, schedule: Q01DX011 (ip), vehicle: carboxymethylcellulose (CMC)”, the T/C was 11 % of control, 33 % of control, 51 % of control. With `OCC1OC(n2cnc3c(=S)nc[nH]c32)C(O)C1O` (centres undefined), the T/C (dose: 0.5 mg/kg/injection, schedule: Q01DX011 (ip), vehicle: carboxymethylcellulose (CMC)) is reported as 36 % of control, 98 % of control, 156 % of control. `Nc1nc(=S)c2[nH]cnc2[nH]1`: the T/C (dose: 0.12 mg/kg/injection, schedule: Q01DX011 (ip), vehicle: carboxymethylcellulose (CMC)) was 65 % of control and 107 % of control. For the compound `Nc1nc(=S)c2ncn(C3OC(CO)C(O)C3O)c2[nH]1` (centres undefined), the T/C (dose: 0.75 mg/kg/injection, schedule: Q01DX011 (ip), vehicle: carboxymethylcellulose (CMC)) was 38 % of control and 67 % of control. For the compound `C1CN1c1nc(N2CC2)nc(N2CC2)n1`, the T/C reads like this: (dose: 0.05 mg/kg/injection, schedule: Q01DX011 (ip), vehicle: saline) 36 % of control and 106 % of control; (dose: 0.1 mg/kg/injection, schedule: Q01DX011 (ip), vehicle: saline) 57 % of control and 150 % of control. Turning to `CCN(CC)CCNc1ccc(C)c2sc3ccccc3c(=O)c12`, the T/C (dose: 32.5 mg/kg/injection, schedule: Q01DX011 (ip), vehicle: carboxymethylcellulose (CMC)) is 21 % of control and 119 % of control. `O=S(=O)(O)c1cccnc1`: the T/C was 96 % of control and 157 % of control (dose: 19.5 mg/kg/injection, schedule: Q01DX011 (ip), vehicle: carboxymethylcellulose (CMC)); 58 % of control and 108 % of control (dose: 78.0 mg/kg/injection, schedule: Q01DX011 (ip), vehicle: carboxymethylcellulose (CMC)). Take `C1OC1C1CO1` (centres undefined): the T/C (dose: 2.25 mg/kg/injection, schedule: Q01DX011 (ip), vehicle: carboxymethylcellulose (CMC)) was 73 % of control and 156 % of control.

For the compound `C[C@]12CC[C@@H]3c4ccc(O)cc4CC[C@H]3[C@@H]1CC[C@@H]2O`, the T/C (dose: 300.0 mg/kg/injection, schedule: Q01DX011 (sc), vehicle: steriod suspending solution) is 89 % of control and 176 % of control.

Turning to `CNC(C)=O`, the T/C under setting [2] is 95 % of control and 180 % of control. `N=[N+]=CC(=O)OCC(N)C(=O)O` (centres undefined): the T/C (dose: 0.9 mg/kg/injection, schedule: Q01DX011 (ip), vehicle: carboxymethylcellulose (CMC)) is 70 % of control and 110 % of control; the T/C (dose: 7.2 mg/kg/injection, schedule: Q01DX011 (ip), vehicle: carboxymethylcellulose (CMC)) was 69 % of control and 101 % of control. In the case of `CN(Cc1cnc2nc(N)nc(N)c2n1)c1ccc(C(=O)N[C@@H](CCC(=O)O)C(=O)O)cc1`, the T/C (dose: 0.26 mg/kg/injection, schedule: Q01DX011 (ip), vehicle: carboxymethylcellulose (CMC)) is 65 % of control and 116 % of control; the T/C (dose: 0.37 mg/kg/injection, schedule: Q01DX011 (ip), vehicle: carboxymethylcellulose (CMC)) was 40 % of control, 84 % of control, 89 % of control; the T/C (dose: 0.52 mg/kg/injection, schedule: Q01DX011 (ip), vehicle: carboxymethylcellulose (CMC)) was 61 % of control and 164 % of control; the T/C (dose: 1.05 mg/kg/injection, schedule: Q01DX011 (ip), vehicle: carboxymethylcellulose (CMC)) is 43 % of control and 116 % of control; the T/C (dose: 3.0 mg/kg/injection, schedule: Q01DX011 (ip), vehicle: saline) was 9 % of control and 48 % of control. For the compound `CC(=O)OCC(=O)[C@@]1(O)CC[C@H]2[C@@H]3CCC4=CC(=O)CC[C@]4(C)[C@H]3[C@@H](O)C[C@@]21C`, the T/C (dose: 34.0 mg/kg/injection, schedule: Q01DX011 (sc), vehicle: steriod suspending solution) was 14 % of control and 105 % of control.

In the case of `O=C1CN(/N=C\c2ccc([N+](=O)[O-])o2)C(=O)N1`, the T/C (dose: 38.0 mg/kg/injection, schedule: Q01DX011 (ip), vehicle: carboxymethylcellulose (CMC)) was 54 % of control and 80 % of control. With `C[C@@H]1C[C@@H]([C@H](O)CC2CC(=O)NC(=O)C2)C(=O)[C@@H](C)C1`, the T/C was 112 % of control and 161 % of control (dose: 8.7 mg/kg/injection, schedule: Q01DX011 (ip), vehicle: carboxymethylcellulose (CMC)); 116 % of control and 161 % of control (dose: 17.5 mg/kg/injection, schedule: Q01DX011 (ip), vehicle: carboxymethylcellulose (CMC)); 46 % of control and 102 % of control (dose: 35.0 mg/kg/injection, schedule: Q01DX011 (ip), vehicle: carboxymethylcellulose (CMC)); 19 % of control, 66 % of control, 76 % of control (dose: 40.0 mg/kg/injection, schedule: Q01DX011 (ip), vehicle: carboxymethylcellulose (CMC)). For the compound `Nc1ncnc2[nH]ncc12`, the T/C (dose: 7.5 mg/kg/injection, schedule: Q01DX011 (ip), vehicle: carboxymethylcellulose (CMC)) was 14 % of control and 47 % of control. Consider `Nc1ccc2ccccc2c1N=Nc1ccccc1`, for which the T/C (dose: 250.0 mg/kg/injection, schedule: Q01DX011 (ip), vehicle: carboxymethylcellulose (CMC)) is 33 % of control and 66 % of control. As for `CCOC(=O)NP(=O)(N1CC1)N1CC1`, the T/C is 41 % of control, 105 % of control, 172 % of control (dose: 5.0 mg/kg/injection, schedule: Q01DX011 (ip), vehicle: saline); 36 % of control and 79 % of control (dose: 10.0 mg/kg/injection, schedule: Q01DX011 (ip), vehicle: saline); 15 % of control, 30 % of control, 72 % of control (dose: 15.0 mg/kg/injection, schedule: Q01DX011 (ip), vehicle: saline); 12 % of control, 48 % of control, 72 % of control (dose: 19.0 mg/kg/injection, schedule: Q01DX011 (ip), vehicle: saline). `Nc1ccccc1N`: the T/C under setting [1] is 46 % of control and 72 % of control. Take `S=c1nc[nH]c2nc[nH]c12`: the T/C under setting [3] was 37 % of control, 82 % of control, 89 % of control. Regarding `CN(N=O)C(N)=O`, the T/C is reported as 32 % of control, 68 % of control, 79 % of control under setting [3]; 59 % of control, 64 % of control, 89 % of control (dose: 5.0 mg/kg/injection, schedule: Q01DX011 (ip), vehicle: carboxymethylcellulose (CMC)); 55 % of control, 80 % of control, 98 % of control (dose: 10.0 mg/kg/injection, schedule: Q01DX011 (ip), vehicle: carboxymethylcellulose (CMC)). `Cc1ncc(CO)c(C)c1O`: the T/C (dose: 73.0 mg/kg/injection, schedule: Q01DX011 (ip), vehicle: carboxymethylcellulose (CMC)) is listed as 77 % of control, 112 % of control, 116 % of control. Turning to `NC(=O)/C=C/C(=O)O` (tested in a mixture with another compound), the T/C (dose: 31.0 mg/kg/injection, schedule: Q#A X022 (ip), vehicle: carboxymethylcellulose (CMC)) is 23 % of control and 55 % of control. In the case of `CSc1ncnc2c1ncn2C1CCCO1` (centres undefined), the T/C under setting [1] was 17 % of control and 46 % of control. Consider `c1ccc2c(c1)ccc1cc3c(ccc4ccccc43)cc12`, for which, under setting [2], the T/C was 42 % of control and 70 % of control. With `CO[C@@]12[C@H](COC(N)=O)C3=C(C(=O)C(C)=C(N)C3=O)N1C[C@@H]1N[C@@H]12`, the T/C is reported as 18 % of control, 67 % of control, 161 % of control under setting [3] and 2 % of control, 22 % of control, 84 % of control (dose: 2.0 mg/kg/injection, schedule: Q01DX011 (ip), vehicle: carboxymethylcellulose (CMC)).
